Some of the results follow.

One assay relates to HSkMC. Nature of the assay: cytotoxicity call (relative viability < 0.9). Conditions: 10 µM.
The next assay relates to HepG2. Nature of the assay: cytotoxicity call (relative viability < 0.9). Conditions: 10 µM.
Another assay has as its system S. aureus RN4220. Nature of the assay: growth inhibition call (relative growth <= 0.2). Conditions: 50 µM.

As to `CON=C(C(=O)NC1C(=O)N2C(C(=O)O)=C(CSC(=O)c3ccco3)CSC12)c1csc(N)n1.Cl` (configuration not stated), the cytotoxicity call in the assay on HSkMC and with HepG2 was “inactive” throughout. Moreover, the growth inhibition call with S. aureus RN4220 was “active”.
In the case of `COCC#Cc1cnc2c(c1)C(=O)N([C@@H](C)CO)C[C@@H](C)[C@H](CN(C)C(=O)CN1CCOCC1)O2`, the cytotoxicity call in the assay with HSkMC and with HepG2 was “inactive” throughout. Moreover, the growth inhibition call in the assay on S. aureus RN4220 was “inactive”.
`O=C(NCCO[N+](=O)[O-])c1cccnc1`: the cytotoxicity call with HSkMC was “inactive”. Further, the cytotoxicity call in the assay on HepG2 is “active”. Moreover, the growth inhibition call in the assay on S. aureus RN4220 was “inactive”.
`COc1ccc(NC(=O)Nc2ccc3c(c2)C(=O)N([C@H](C)CO)C[C@@H](C)[C@@H](CN(C)Cc2ccc(Cl)c(Cl)c2)O3)cc1`: the cytotoxicity call in the assay on HSkMC and in the assay on HepG2 was “inactive” each time. Also, the growth inhibition call in the assay with S. aureus RN4220 was “inactive”.
For the molecule `COc1ccc(S(=O)(=O)Nc2cccc3c2O[C@@H](CN(C)Cc2ccncc2)[C@H](C)CN([C@H](C)CO)C3=O)cc1`, the cytotoxicity call in the assay with HSkMC and in the assay with HepG2 was “inactive” each time. Further, in the assay on S. aureus RN4220, the growth inhibition call was “inactive”.
As to `COc1ccc(S(=O)(=O)Nc2cccc3c2O[C@H](CN(C)S(=O)(=O)c2ccc(OC)cc2)[C@H](C)CN([C@@H](C)CO)C3=O)cc1`, the cytotoxicity call with HSkMC and in the assay with HepG2 was “inactive” in each case. Also, the growth inhibition call in the assay on S. aureus RN4220 is “inactive”.
Take `CCNC(=O)[C@@H]1CCCN1C(=O)[C@H](CCCNC(=N)N)NC(=O)[C@H](CC(C)C)NC(=O)[C@@H](CC(C)C)NC(=O)[C@H](Cc1ccc(O)cc1)NC(=O)[C@H](CO)NC(=O)[C@H](Cc1c[nH]c2ccccc12)NC(=O)[C@H](Cc1cnc[nH]1)NC(=O)[C@@H]1CCC(=O)N1`: the cytotoxicity call in the assay with HSkMC and with HepG2 was “inactive” throughout. Also, in the assay with S. aureus RN4220, the growth inhibition call is “inactive”.
Turning to `C[C@H]1O[C@@H](OC[C@H]2O[C@@H](Oc3c(-c4ccc(O)c(O)c4)oc4cc(O)cc(O)c4c3=O)[C@@H](O)[C@@H](O)[C@@H]2O)[C@@H](O)[C@@H](O)[C@@H]1O`, the cytotoxicity call in the assay with HSkMC and with HepG2 was “inactive” in each case. Moreover, in the assay with S. aureus RN4220, the growth inhibition call was “inactive”.
For the molecule `C[C@@H]1CCCCO[C@@H](CN(C)C(=O)CCC(F)(F)F)[C@H](C)CN([C@@H](C)CO)C(=O)c2cc(NS(=O)(=O)c3ccc(Cl)cc3)ccc2O1`, the cytotoxicity call in the assay with HSkMC and in the assay with HepG2 was “inactive” in each case. Moreover, the growth inhibition call with S. aureus RN4220 was “inactive”.
For `C[C@H]1CN([C@@H](C)CO)C(=O)c2cc(-c3ccncc3)cnc2O[C@@H]1CN(C)Cc1ccc(Oc2ccccc2)cc1`, the cytotoxicity call in the assay with HSkMC and in the assay with HepG2 was “inactive” in each case. In addition, the growth inhibition call in the assay with S. aureus RN4220 was “inactive”.
For `O=C(C[C@H]1C=C[C@@H](NC(=O)Nc2cc(F)ccc2F)[C@@H](CO)O1)NCCCN1CCOCC1`, the cytotoxicity call in the assay with HSkMC and with HepG2 was “inactive” each time. For the same molecule, the growth inhibition call with S. aureus RN4220 is “inactive”.
In the case of `C[C@@H]1CN([C@H](C)CO)C(=O)c2cccc(NC(=O)NC3CCCCC3)c2O[C@H]1CN(C)Cc1ccc(Cl)c(Cl)c1`, the cytotoxicity call with HSkMC and in the assay with HepG2 was “inactive” throughout. Besides, in the assay on S. aureus RN4220, the growth inhibition call is “inactive”.
In the case of `O=C(N[C@@H](c1ccc(F)cc1)c1ccc2ccccc2n1)C1CCN(CCOc2ccc(F)cc2)CC1`, the cytotoxicity call in the assay with HSkMC was “inactive”. Moreover, the cytotoxicity call in the assay on HepG2 is “active”. The growth inhibition call with S. aureus RN4220 is “active”.
For the molecule `CC(C)NC(=O)N(C)C[C@H]1OCCCC[C@@H](C)Oc2ccc(NS(C)(=O)=O)cc2C(=O)N([C@H](C)CO)C[C@H]1C`, the cytotoxicity call in the assay on HSkMC (human skeletal muscle cells) and in the assay on HepG2 was “inactive” throughout. Besides, the growth inhibition call in the assay with S. aureus RN4220 was “inactive”.

The values are drawn from the antibiotic and cytotoxicity screens of Wong et al. (2023).
